The source of these data is publication PMC9911399, “Two distinct binding modes provide the RNA-binding protein RbFox with extraordinary sequence specificity”.

Substitutions are numbered along the chain they refer to; changes in the protein carry UniProt numbers. Some of the results follow.

Sequences and labels used below:
T1: RBFOX1 RRM RbFoxmut (Fox-RRM*) (Homo sapiens, UniProt Q9NWB1 109-208, R118D;E147R;N151S;E152T)
T1 sequence: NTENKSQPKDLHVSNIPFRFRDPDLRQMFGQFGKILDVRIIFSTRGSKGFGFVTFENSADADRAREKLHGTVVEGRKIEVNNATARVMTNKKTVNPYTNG

B1: AGCGGUU (DNA:RNA)
RNA: GGGAGACCGGAAUUCAGAUUGUCCAGCGGUUUUAAAUCCCGUCGUAGCCACCA
DNA 1: CAATCTGAATTCCGGTCTCCC
DNA 2: TGGTGGCTACGACGGGATT
B2: AUUGCCC (DNA:RNA)
RNA: B1 RNA with G26U, C27U, G29C, U30C, U31C
DNA 1: CAATCTGAATTCCGGTCTCCC
DNA 2: TGGTGGCTACGACGGGATT
B3: GGGCGUA (DNA:RNA)
RNA: B1 RNA with A25G, C27G, G28C, U31A
DNA 1: CAATCTGAATTCCGGTCTCCC
DNA 2: TGGTGGCTACGACGGGATT
B4: CGCGGGA (DNA:RNA)
RNA: B1 RNA with A25C, U30G, U31A
DNA 1: CAATCTGAATTCCGGTCTCCC
DNA 2: TGGTGGCTACGACGGGATT
B5: GGUCGAU (DNA:RNA)
RNA: B1 RNA with A25G, C27U, G28C, U30A
DNA 1: CAATCTGAATTCCGGTCTCCC
DNA 2: TGGTGGCTACGACGGGATT
B6: UCCUCAA (DNA:RNA)
RNA: B1 RNA with A25U, G26C, G28U, G29C, U30A, U31A
DNA 1: CAATCTGAATTCCGGTCTCCC
DNA 2: TGGTGGCTACGACGGGATT
B7: GCUAACU (DNA:RNA)
RNA: B1 RNA with A25G, G26C, C27U, G28A, G29A, U30C
DNA 1: CAATCTGAATTCCGGTCTCCC
DNA 2: TGGTGGCTACGACGGGATT
B8: AAAUGGA (DNA:RNA)
RNA: B1 RNA with G26A, C27A, G28U, U30G, U31A
DNA 1: CAATCTGAATTCCGGTCTCCC
DNA 2: TGGTGGCTACGACGGGATT
B9: AUGGAAA (DNA:RNA)
RNA: B1 RNA with G26U, C27G, G29A, U30A, U31A
DNA 1: CAATCTGAATTCCGGTCTCCC
DNA 2: TGGTGGCTACGACGGGATT
B10: UUCUGCA (DNA:RNA)
RNA: B1 RNA with A25U, G26U, G28U, U30C, U31A
DNA 1: CAATCTGAATTCCGGTCTCCC
DNA 2: TGGTGGCTACGACGGGATT
B11: UUGAGAA (DNA:RNA)
RNA: B1 RNA with A25U, G26U, C27G, G28A, U30A, U31A
DNA 1: CAATCTGAATTCCGGTCTCCC
DNA 2: TGGTGGCTACGACGGGATT
B12: AGUUAAA (DNA:RNA)
RNA: B1 RNA with C27U, G28U, G29A, U30A, U31A
DNA 1: CAATCTGAATTCCGGTCTCCC
DNA 2: TGGTGGCTACGACGGGATT
B13: UGAUGUC (DNA:RNA)
RNA: B1 RNA with A25U, C27A, G28U, U31C
DNA 1: CAATCTGAATTCCGGTCTCCC
DNA 2: TGGTGGCTACGACGGGATT
B14: GUCGUUU (DNA:RNA)
RNA: B1 RNA with A25G, G26U, G29U
DNA 1: CAATCTGAATTCCGGTCTCCC
DNA 2: TGGTGGCTACGACGGGATT
B15: CUGCUUA (DNA:RNA)
RNA: B1 RNA with A25C, G26U, C27G, G28C, G29U, U31A
DNA 1: CAATCTGAATTCCGGTCTCCC
DNA 2: TGGTGGCTACGACGGGATT
B16: AAUCUAU (DNA:RNA)
RNA: B1 RNA with G26A, C27U, G28C, G29U, U30A
DNA 1: CAATCTGAATTCCGGTCTCCC
DNA 2: TGGTGGCTACGACGGGATT
B17: AACCCGG (DNA:RNA)
RNA: B1 RNA with G26A, G28C, G29C, U30G, U31G
DNA 1: CAATCTGAATTCCGGTCTCCC
DNA 2: TGGTGGCTACGACGGGATT
B18: GCCGGAC (DNA:RNA)
RNA: B1 RNA with A25G, G26C, U30A, U31C
DNA 1: CAATCTGAATTCCGGTCTCCC
DNA 2: TGGTGGCTACGACGGGATT
B19: GCCGUAC (DNA:RNA)
RNA: B1 RNA with A25G, G26C, G29U, U30A, U31C
DNA 1: CAATCTGAATTCCGGTCTCCC
DNA 2: TGGTGGCTACGACGGGATT
B20: UAGAAUA (DNA:RNA)
RNA: B1 RNA with A25U, G26A, C27G, G28A, G29A, U31A
DNA 1: CAATCTGAATTCCGGTCTCCC
DNA 2: TGGTGGCTACGACGGGATT

The target in this assay is T1, RBFOX1 RRM RbFoxmut (Fox-RRM*). The assay can be described thus: EMSA; HiTS-Eq, 1 nM pool, 10 min; buffer printed only for the single-RNA assays: 10 mM Tris pH 7.5, 150 mM NaCl, 3.4 mM EDTA, 0.001% NP-40, 30 C. The settings on record: tags: His6 N-terminal (pET28a); label: 5' 32P. In a few lines:
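Relative association constants, normalised to the cognate motif, were derived by comparing read counts of each RNA species with those of the control reaction. The RNA sequenced was the free fraction, separated by 8% native PAGE after a 10 min equilibration in 50 µL of 1 nM 5′-radiolabelled RNA (7 randomized nucleotides) with increasing concentrations of purified wild-type or mutant RbFox RRM.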
Take B1: the binding signal is 0.113 KA relative to UGCAUGU. For B2 the value was 0.105 KA relative to UGCAUGU. For B3 the value was 0.159 KA relative to UGCAUGU; for B4, 0.0754 KA relative to UGCAUGU; for B5, 0.111 KA relative to UGCAUGU. Then B6, with 0.0616 KA relative to UGCAUGU; and B7, with 0.0856 KA relative to UGCAUGU; and B8, with 0.0603 KA relative to UGCAUGU.

As for B9, the binding signal is 0.0889 KA relative to UGCAUGU. Take B10: the binding signal was 0.17 KA relative to UGCAUGU. Take B11: the binding signal was 0.089 KA relative to UGCAUGU. Then B12, with 0.109 KA relative to UGCAUGU. Then B13, with 0.207 KA relative to UGCAUGU; and B14, with 0.108 KA relative to UGCAUGU.

As for B15, the binding signal was 0.122 KA relative to UGCAUGU. Then B16, with 0.0618 KA relative to UGCAUGU; and B17, with 0.0868 KA relative to UGCAUGU; and B18, with 0.0884 KA relative to UGCAUGU. Then B19, with 0.0902 KA relative to UGCAUGU; and B20, with 0.111 KA relative to UGCAUGU.
